{
  "source": "patent US10751422B2",
  "about": "“Antibody drug conjugates (ADC) that bind to FLT3 proteins” (AGENSYS, INC., priority 2015, dated 2020)",
  "key": {"FLT3": {"tested_on": "FLT3", "assay": "FACS binding to AML and B-ALL cell lines grown in vitro", "design": "species or system human", "conditions": "for Geometric Mean fluorescence: antibody 10 ug/ml", "protocol": "CHv62.21 was tested for binding to AML and B-ALL cell lines grown in vitro. (See, FIGS. 15A-15M). Briefly, CHv62.21 and an isotype matched control antibody were biotinylated using NHS LC biotin. In vitro, exponentially grown cancer cell lines were used for all experiments. Cells were harvested by and washed by centrifugation. Cells were Fc blocked to reduce non-specific binding. Antibodies were diluted to 10 ug/ml final concentration and co-incubated with cells at 4° C. for 1 hour. At the end of the incubation, cells were washed and incubated with secondary detection Streptavidin-PE antibody at a final 1:200 (2.5 ug/ml) dilution for 1 hour at 4° C. After washing un-bound secondary antibody, cells were analyzed by FACS and geometric mean fluorescence was determined and reported. Fluorescence ratio was calculated as follows: Geo mean cHv62.21/Geo mean isotype control=MFR, a measure of fold expression above isotype control.\nGeometric Mean values and Mean Florescence ratios (MFR) values were obtained (Table VI) and histograms are shown (FIGS. 15A-15M)."}, "EOL-1": {"tested_on": "EOL-1", "assay": "EOL-1 cell growth with human FLT3 ligand and antibody (Cell Titer Glo, 5 days)", "format": "cell-based", "conditions": "50, 10 or 5 ng/mL human FLT3 ligand, 10, 1, 0.1 μg/mL antibody", "protocol": "The ability of FLT3 antibodies (CHv62.21 and v62-1b37.1) to mediate the effect of human FLT3 ligand was evaluated using the human leukemia EOL-1 cell line, which endogenously expresses FLT3. Isotype control antibody (mLys-1c3.1) was also used. […] The next day, cells were treated with 50, 10 or 5 ng/mL of human FLT3 ligand (in 25 μl of complete media) and 10, 1, 0.1 and 0 μg/mL of test antibody (in 25 μl of complete media). Media alone was used as the untreated control. […] At the end of the incubation period, 100 μl of Cell Titer Glo was added to each well and incubated for 30 minutes, shaking, at room temperature."}, "EOL-1 and SEM": {"tested_on": "EOL-1 and SEM", "assay": "ADCC activity in vitro (CytoTox 96 LDH assay), target cells EOL-1 and SEM", "format": "cell-based", "conditions": "effector normal human PBMC, E:T=100:1, 2.5 ug/mL, 4 hours", "protocol": "CHv62.21 and CHv62.21pAF was tested for ADCC activity in vitro. Briefly, the naked and ADC anti-FLT3 monoclonal antibodies, CHv62.21 and CHv62.21pAF were tested for their ability to mediate antibody dependent cytotoxicity activity (ADCC) using the target cell lines EOL-1 and SEM in the presence of the effector cells, normal human PBMCs using the CytoTox 96® Non-Radioactive Cytotoxicity Assay (Promega, G1780).\nOne (1) day prior to performing the assay, three (3) vials of the effector cells, normal human PBMC (Hemacare, Donor ID: 1888), were thawed, washed and plated into T-175 cell culture flasks in RPMI-1640 supplemented with 10% heat inactivated fetal bovine serum. The flasks were stored in an incubator at 37° C. […]\nThe test samples were each diluted to a final concentration of 2.5 ug/mL in assay buffer. […] The activity of lactate dehydrogenase in the supernatant was determined by using the colorimetric LDH Detection Kit; CytoTox 96® Non-Radioactive Cytotoxicity Assay (Promega) with absorbance readings taken at 490 nm.\nThe data was analyzed by first subtracting the average of absorbance values of the Culture Medium Background wells from all absorbance values of Experimental, Effector spontaneous, Target spontaneous and Target maximum wells. Next, the average of the corrected absorbance readings was normalized and ADCC activity was calculated by using the following formula: […]"}, "cell surface FLT3": {"target": "cell surface FLT3 (Homo sapiens, UniProt P36888)", "assay": "Binding of recombinant MAb to cell surface FLT3 by flow cytometry", "from_the_text": "To express CHv62.21 MAb recombinantly in transfected cells, v62.21 hybridoma MAb variable heavy and light chain sequences were cloned upstream of the human heavy chain IgG and human light chain IgK constant regions respectively. The complete CHv62.21 MAb human heavy chain and light chain cassettes were cloned downstream of the CMV promoter/enhancer in a cloning vector. The recombinant CHv62.21 MAb expressing construct was transfected into CHO cells for stable expression in the Lonza GS system (Lonza, Basel, Switzerland). The CHv62.21 MAb secreted from recombinant CHO cells was purified and evaluated for binding to cell surface FLT3 by flow cytometry.\n(§1) The CHv62.21 MAb secreted from recombinant cells is also evaluated for binding to FLT3 recombinant protein by ELISA.\nTo express CHv62.21pAF recombinantly in transfected cells, v62-1b21 hybridoma MAb variable heavy and light chain sequences were cloned upstream of the human heavy chain IgG and human light chain IgK constant regions respectively. The complete CHv62.21 MAb human heavy chain and light chain cassettes were cloned downstream of the CMV promoter/enhancer in a cloning vector. […] The CHv62.21pAF secreted from the stable subclone was purified and evaluated for binding to cell surface FLT3 by flow cytometry."}, "Flt3 protein": {"target": "Flt3 protein (Homo sapiens, UniProt P36888)", "assay": "Binding to FLT3 recombinant protein by ELISA", "protocol": "as §1"}},
  "data": [
    {"molecule": "CHv62.21: FLT3 MAb, human IgG1/kappa, heavy chain SEQ ID NO: 9, light chain SEQ ID NO: 10, CHO cell ATCC PTA-121831 (antibody, listed as Homo sapiens, CHv62.21 heavy chain; CHv62.21 light chain) heavy: EVQLVESGGGLVRPGGSLRLSCAASGFTFSGYSINWVRQAPGKGLEWVSSISSSSNYIYYADSVKGRFTISRDNAKNSLYLQMNSLRAEDTAVYYCAREGFIAGTTFDAFDIWGQGTMVTVSS[skipping human IgG1 constant region] light: DIQMTQSPSSLSASVGDRVTITCRASQGIRNDLGWYQQKPGKAPKRLIYAASSLQSGVPSRFSGSGSGTEFTLTISSLQPEDFATYYCLQHNGFPYTFGQGTKLEIKRTVAAPSVFIFPPSDEQLKSGTASVVCLLNNFYPREAKVQWKVDNALQSGNSQESVTEQDSKDSTYSLSSTLTLSKADYEKHKVYACEVTHQGLSSPVTKSFNRGEC", "values": [
      {"measurement": "binding to human cancer cell lines (summary of FACS)", "setting": "FLT3; AML and B-ALL cell lines", "result": "binds several human cancer cell lines"},
      {"measurement": "Geometric Mean fluorescence", "setting": "FLT3; EOL-1 (AML)", "result": 14000},
      {"measurement": "Mean Florescence ratio (MFR)", "setting": "FLT3; Karpas-299 (ALCL), Geo mean antibody/Geo mean isotype control", "result": 1},
      {"measurement": "Geometric Mean fluorescence", "setting": "FLT3; Karpas-299 (ALCL)", "result": 634},
      {"measurement": "Geometric Mean fluorescence", "setting": "FLT3; MOLM-13 (AML)", "result": 14000},
      {"measurement": "Geometric Mean fluorescence", "setting": "FLT3; MONOMAC-1 (AML)", "result": 11400},
      {"measurement": "Geometric Mean fluorescence", "setting": "FLT3; MV-4-11 (AML)", "result": 2875},
      {"measurement": "Geometric Mean fluorescence", "setting": "FLT3; NALM-1 (CML)", "result": 12900},
      {"measurement": "Geometric Mean fluorescence", "setting": "FLT3; OCI-AML2 (AML)", "result": 5646},
      {"measurement": "Geometric Mean fluorescence", "setting": "FLT3; PL-21 (AML)", "result": 3715},
      {"measurement": "Geometric Mean fluorescence", "setting": "FLT3; REH (ALL)", "result": 16200},
      {"measurement": "Geometric Mean fluorescence", "setting": "FLT3; RS4, 11 (B-ALL)", "result": 18400},
      {"measurement": "Geometric Mean fluorescence", "setting": "FLT3; SEM (B-ALL)", "result": 132000},
      {"measurement": "Geometric Mean fluorescence", "setting": "FLT3; SKM-1 (AML)", "result": 3208},
      {"measurement": "Geometric Mean fluorescence", "setting": "FLT3; THP-1 (AML)", "result": 19700},
      {"measurement": "effect on growth of EOL-1 cells in the presence of FLT3 ligand", "setting": "EOL-1", "result": "does not have any effect on growth"},
      {"measurement": "ADCC activity", "setting": "EOL-1 and SEM", "result": "do not show ADCC activity"},
      {"measurement": "binding to FLT3 compared with hybridoma-derived v62.21", "setting": "cell surface FLT3; CHO expressed vs hybridoma", "result": "binds FLT3 similarly to the v62.21 purified from hybridoma"},
      {"measurement": "binding to cell surface FLT3", "setting": "cell surface FLT3; MAb secreted from recombinant CHO cells, flow cytometry", "result": "binds to FLT3 on the cell surface"},
      {"measurement": "binding to FLT3 protein, CHO vs hybridoma derived material", "setting": "Flt3 protein", "result": "identical"}
    ]}
  ]
}
